# The other results are listed elsewhere or left out.
# Tested on: T1, C. trachomatis L2/434/Bu expressing GFP (CTL2-GFP)
# T1 construct: L2/434/Bu GFP intracellular growth in HeLa cells
# Set-up: species or system HeLa; C. trachomatis total inclusion area by high-content imaging, normalised to DMSO
# Conditions: total inclusion area; 28.5 h, 10 µM; inhibitor
# Method in brief: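 Post-fluorescence-read fixation, DNA staining with Hoechst and high-content imaging; GFP inclusion area and number per well, and nuclei counts, used as proxies for bacterial growth and host viability.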
row,Structure (SMILES),% of control remaining
1,O=C(Cc1c[nH]c2ccccc12)NC(Cc1ccccc1)C(=O)O (stereo not drawn) [CBK286770],93.6087
2,Cc1ccn2c(=O)c(C(=O)NCc3cccnc3N3CCOCC3)cnc2c1 [CBK298316],69.0866
3,O=C(NC1CC(=O)N(CC(F)(F)F)C1)c1cnc(-c2ccncc2)s1 (stereo not drawn) [CBK305546],26.4606
4,O=S(=O)(Cc1cc(Cl)ccc1C(F)(F)F)c1cc2c(N3CCNCC3)nccc2s1 [CBK049960C],80.4073
5,CC(=O)N1N=C(c2ccc3c(c2)OCO3)CC1c1ccc(C(=O)O)cc1 (stereo not drawn) [CBK286547],108.869
6,O=S(=O)(NCCN1CCOCC1)c1ccc(Cl)c(Cl)c1Cl [CBK264973],115.093
7,O=C(c1cccs1)N1CCC[C@@H]1Cn1c(=O)oc2ccccc21 [CBK284528],76.1198
8,Cc1cc(C)c2nc(C(F)(F)F)nc(NCCCN3CCOCC3)c2c1 [CBK266753],70.5558
9,O=C(Nc1nc(-c2cccs2)cs1)c1ccc(F)cc1 [CBK287327],77.7935
10,O=C(O)CNC(=O)c1ccccc1NC(=O)c1ccco1 [CBK286894],118.806
11,COc1cccc(CN2CCCC[C@H]3CN(C(C)=O)C[C@H]32)c1 [CBK285510],103.951
12,Cc1ccnc(SCc2cc(=O)c3c(=O)n(-c4ccccc4)[nH]c3[nH]2)n1 [CBK269875],68.1804
13,Cc1cc(NC(=O)CN2CCOC(CNc3cccnn3)C2)on1 (stereo not drawn) [CBK305231],45.3435
14,O=C(NCC1(c2ccccc2)CCC1)C1CCCN(C(=O)c2ccoc2)C1 (stereo not drawn) [CBK296670],130.454
15,COc1ccc2[nH]c(SCC(=O)Nc3ccc(Br)cc3)nc2c1 [CBK263447],90.6879
16,O=C(OCc1cc2ccccc2cn1)N1CCOCC1 [CBK200121],90.1441
17,O=C(NCCN1CCN(Cc2ccccc2Cl)CC1)Nc1ccccc1 [CBK268039],87.9217
18,Cc1cc(NC(=O)c2ccccc2)n(-c2nc(C)c(C)c(=O)[nH]2)n1 [CBK287655],82.3077
19,COc1ccccc1N1CCN(C(=O)CCCC(=O)O)CC1 [CBK286904],72.5397
20,CC/C(=C/c1sc2ccc3ccccc3c2[n+]1CCCS(=O)(=O)[O-])SC [CBK260901],83.4718
21,O=C(NCc1ccccn1)C(=O)N/N=C/c1ccccc1O [CBK262157],106.529

row,Structure (SMILES),% of control remaining
1,O=C(NCC1CCCO1)C(=O)Nc1ccccc1F (stereo not drawn) [CBK263557],103.453
2,Cc1ccc(COc2cc(C(=O)NCc3ccccn3)c3ccccc3n2)cc1 [CBK294403],112.049
3,CCCCN(CC)S(=O)(=O)c1ccc(-n2ncc(Cl)c(Cl)c2=O)cc1 [CBK305036],0
4,CC(C)N(C(=O)Cn1cccc2cc(C(F)F)nc1-2)C(C)C [CBK285012],93.9549
5,COc1ccc(CN(Cc2ccccc2OC)[C@@H]2COC[C@H]2c2ccc(F)cc2)cc1 [CBK286484],92.5196
6,CN1CCN(CCC(=O)Nc2ccc3c(c2)CCC3)CC1 [CBK264197],95.9923
7,CCN(CC)c1ccc(C(=O)CN2CCC(Oc3nccnc3OCc3cccnc3)CC2)cc1 [CBK083167T],88.5578
8,Cc1cc(Cl)c(S(=O)(=O)Nc2ccc(I)cc2)cc1OCC(N)=O [CBK266418],125.343
9,Cc1nc(SCC(=O)O)nc(O)c1CCC(C)C [CBK269920],75.2595
10,CS(=O)(=O)Nc1ncc(Br)cc1C(=O)NCc1ccc(F)cc1 [CBK076538],96.0566
11,O=c1c2c(n3c(S)nnc3n1Cc1ccco1)-c1ccccc1CC21CCCCC1 [CBK265271],121.086
12,CCOc1ccc(S(=O)(=O)N(C)CC(=O)O)cc1 [CBK270032],83.526
13,Cc1ncc([N+](=O)[O-])n1Cc1nnc(S)n1C [CBK267873],81.6739
14,Cc1cccc(-c2ncc(NC(=O)COc3ccc4ccccc4c3)nc2-c2ccc(N(C)C)cc2)c1 [CBK037575],79.098
15,CCOC(=O)c1cc2c(CNc3ccc(OC)nc3)cccc2o1 [CBK006086],121.271
16,CN1CCCN(c2nc(-c3cccc(C(F)(F)F)c3)cn3ccnc23)CC1 [CBK066519],99.8995
17,CC(C)(C)OC(=O)NCCc1ccc(Nc2cc(-c3cc4ccccc4s3)ncn2)cc1 [CBK090959],96.8988
18,Nc1nc(COn2c(-c3ccccc3)nc3ccccc3c2=O)nc(-c2ccccc2O)n1 [CBK266689],120.802
19,C=C1C2(C(=O)N3CCC(Oc4cccnc4)CC3)CCC(C2)C1(C)C (stereo not drawn) [CBK282082],90.1592
20,O=C(Nc1nnc(Cc2cccs2)o1)c1ccccc1 [CBK287831],72.7749
21,COc1ccc(C(NC(=O)C2CCCN(C(=O)NC(=O)c3ccccc3)C2)c2ccccc2C)cn1 (stereo not drawn) [CBK075023],92.4107

row,Structure (SMILES),% of control remaining
1,CCc1ccccc1NC(=O)Cc1ccc(OC)cc1 [CBK087898],88.9045
2,COc1ncccc1C(=O)N1CCN(CCc2ccccc2)CC1 [CBK200226],62.9879
3,CCC(CC)CNc1ncnc2ccc(S(C)(=O)=O)cc12 [CBK306495],38.4021
4,CN1CCN(C(=O)c2[nH]c3ccccc3c2NS(=O)(=O)c2cccc3cccnc23)CC1 [CBK050041],85.8034
5,Cc1ccccc1NC(=O)NCc1ccccc1F [CBK105832],50.7566
6,COc1cccc([C@H]2CN(C(=O)c3ccccc3)[C@@H]3CCN(Cc4cccc(F)c4)C[C@H]23)c1 [CBK285626],81.4838
7,O=C(CSc1ccc2nnc(-c3ccccc3)n2n1)Nc1ccccc1 [CBK287513],108.608
8,O=S(=O)(O)c1cccc2cccc(I)c12 [CBK301197N],75.3719
9,CC(/C=C/c1ccccc1)=N\NC(=O)C(C)Oc1ccc(Br)cc1 (stereo not drawn) [CBK261212],105.327
10,O=C(O)c1cccc(NS(=O)(=O)c2c(Cl)cc(C(F)(F)F)cc2Cl)c1 [CBK155721],91.9145
11,CCc1nc(CCn2ccc3nc(OC)c(C#N)cc3c2=O)no1 [CBK307668],66.7414
12,CCn1cncc1C(=O)N1CCCC1(C)C(=O)NC1CCCC1 (stereo not drawn) [CBK281376],104.063
13,CN(C)CCCN1C(=O)C(O)=C(C(=O)c2ccc(F)cc2)C1c1cccnc1 (stereo not drawn) [CBK264531],114.318
14,CCc1cccc(NC(=O)c2cnc(-c3ccc(Cl)cc3)c(-c3ccc(OC)nc3)c2)n1 [CBK036671],124.155
15,CCC1C(c2ccc(C)cc2)=CCC(C(=O)NCCCN(C)C)C1C (stereo not drawn) [CBK016514],4.201
16,Brc1ccc(OCc2ccccc2)c(CNCc2ccccn2)c1 [CBK268340C],81.0427
17,Cc1cc(C)nc(NC(=O)COc2ccc([N+](=O)[O-])cc2)n1 [CBK265004],98.5923
18,Cc1nccn1CCC1CCN(C(=O)c2cn3ccccc3n2)CC1 [CBK281868],99.3399
19,O=C(CSCc1ccc(Br)cc1)N1CCN(Cc2ccc3c(c2)OCO3)CC1 [CBK268059],98.9342
20,CC1CCc2c(sc3ncnc(OCC(=O)NC4CCCC4)c23)C1 (stereo not drawn) [CBK305893],38.135
21,O=C(O)COCC(=O)N1CCCC(c2nc(-c3ccccc3)c3ccccn23)C1 (stereo not drawn) [CBK046806],123.883

row,Structure (SMILES),% of control remaining
1,Cc1nn(C)cc1-c1cncn1CC(C)Oc1ccccc1Cl (stereo not drawn) [CBK281739],93.4126
2,O=[N+]([O-])c1ccccc1CN1CCN(C/C=C/c2ccccc2)CC1 [CBK261518],83.3734
3,Cc1cn(S(=O)(=O)c2ccc(Cl)cc2)cn1 [CBK026492],118.245
4,O=C(c1ccccc1)c1cc(Cl)ccc1-n1ccnc1 [CBK012383],97.3266
5,O=C(CN1CCSCC1)NNC(=S)Nc1ccccc1 [CBK262445],105.944
6,O=C(NCc1ccc(F)cc1)c1ncoc1-c1cccs1 [CBK283976],96.228
7,Cc1cc(NC(=O)C(C)Oc2ccccc2)nc2c1c(=O)oc1ccccc12 (stereo not drawn) [CBK291153],68.8524
8,CCNc1cc(-c2cccc(N(C)C)c2)ncn1 [CBK090878],82.7983
9,CC(C)(C)C1CCc2c(sc(NC(=O)CCC(=O)O)c2C(=O)Nc2ccccc2Cl)C1 (stereo not drawn) [CBK264146],105.387
10,c1ccc(N2CCN(c3cccc(-c4ccco4)n3)CC2)nc1 [CBK037662],91.7154
11,COc1ccc(/C=N/Nc2ccc([N+](=O)[O-])cc2)c(C(=O)O)c1OC [CBK261984],100.966
12,O=C(O)COc1ccc(NC(=O)C(c2ccccc2)c2ccccc2)cc1 [CBK264250],110.784
13,Cc1ccc(C(=O)N2C3CCC2CC(O)(c2cccnc2F)C3)o1 (stereo not drawn) [CBK284423],51.3239
14,O=C(NC(Cc1ccsc1)c1nccs1)C1CCOCC1 (stereo not drawn) [CBK282824],100.833
15,CS(=O)(=O)N1CC=CC1C(=O)NCCCc1ccc(F)cc1 (stereo not drawn) [CBK282631],121.084
16,Cc1ccccc1COc1cccc2c1CCCC2 [CBK002562],32.8117
17,CC(C)(C)C(=O)N1CCC(c2[nH]ncc2-c2ccncc2)CC1 [CBK284211],77.9918
18,NC(=O)c1cnn(-c2cc(Oc3ccccc3)ncn2)c1N [CBK098664],88.3023
